Whole data set: some 81,000 sequences, median “one-hybrid fitness for binding NBS DNA” near -0.1, cut for the highest 2% near 0.36. This is one part of the list.
B1: Caulobacter ParB omega fusion; a variant is named by its letters at X, in order, B8GW30 (parent)
chain: MESVVVGEPGMSEGRRGLGRGLSALLGEVDAAPAQAPGEQLGGSREAPIEILQRNPDQPRRTFREEDLEDLSNSIREKGVLQPILVRPSPDTAGEYQIVAGERAWRAAQRAGLKTVPIMVRELDDLAVLEIGIIENVQRADLNVLEEALSYKVLMEKFERTQENIAQTIGKSXSHVANXMRLLXLPDEVQSYLVSGELTAXHARAIAAAADPVALAKQIIEGGLSVRETEALARKAPNLSAGKSKGGRPPRVKDTDTQALESDLSSVLGLDVSIDHRGSTGTLTITYATLEQLDDLCNRLTRGI

Variants of: B1
Assay: one-hybrid fitness for binding NBS DNA (the Noc-binding site; scaled: cognate 1, non-cognate 0); higher = stronger binding
Conditions: with NBS DNA site
In short: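 Pre- and post-selection plasmids were Illumina-sequenced, three replicate libraries were pooled, and any variant with under 10 reads was removed. The libraries were Caulobacter ParB with four specificity codons randomised, selected in E. coli USO through a HIS3 reporter whose site is 19 bp from the promoter. Cells grew 48 hours at 37°C on M9 without histidine, with 0.1 mM IPTG and 5 mM 3-AT. Fitness is the log change in variant-to-wild-type read ratio, rescaled against cognate and non-cognate.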

| Variant | one-hybrid fitness for binding NBS DNA |
| --- | --- |
| QENR | ≤ 0.2 |
| KRLW | ≤ 0.2 |
| DYTS | ≤ 0.2 |
| QPTG | ≤ 0.2 |
| NARW | ≤ 0.2 |
| RNYW | ≤ 0.2 |
| SDAA | ≤ 0.2 |
| MNVC | ≤ 0.2 |
| SEWA | ≤ 0.2 |
| VHKR | 0.277 |
| HGLV | ≤ 0.2 |
| HYRI | ≤ 0.2 |
| LRWT | ≤ 0.2 |
| NDPI | ≤ 0.2 |
| YMMR | ≤ 0.2 |
| MDVV | ≤ 0.2 |
| PERL | ≤ 0.2 |
| DIPA | ≤ 0.2 |
| SKSR | ≤ 0.2 |
| TPIR | ≤ 0.2 |
| NNAR | ≤ 0.2 |
| KCKA | ≤ 0.2 |
| ESTN | ≤ 0.2 |
| HTRR | 0.244 |

| Variant | one-hybrid fitness for binding NBS DNA |
| --- | --- |
| VAFR | ≤ 0.2 |
| HFRS | ≤ 0.2 |
| FLAR | ≤ 0.2 |
| RNYF | ≤ 0.2 |
| PMLA | ≤ 0.2 |
| PPTI | ≤ 0.2 |
| AAVY | ≤ 0.2 |
| RWRT | ≤ 0.2 |
| RQCL | ≤ 0.2 |
| MVST | ≤ 0.2 |
| AIWS | ≤ 0.2 |
| DMHR | ≤ 0.2 |
| ARAP | ≤ 0.2 |
| HAFS | ≤ 0.2 |
| TDEV | ≤ 0.2 |
| PCHS | ≤ 0.2 |
| WATG | ≤ 0.2 |
| PFMY | ≤ 0.2 |
| PICS | ≤ 0.2 |
| STWE | ≤ 0.2 |
| MKTA | ≤ 0.2 |
| PNTK | ≤ 0.2 |
| NYYC | ≤ 0.2 |
| SRGY | ≤ 0.2 |

| Variant | one-hybrid fitness for binding NBS DNA |
| --- | --- |
| TMKT | ≤ 0.2 |
| PFAR | ≤ 0.2 |
| LGGK | ≤ 0.2 |
| SWQF | ≤ 0.2 |
| VPAC | ≤ 0.2 |
| RFPG | ≤ 0.2 |
| TEED | ≤ 0.2 |
| DDAI | ≤ 0.2 |
| QHVA | ≤ 0.2 |
| TATD | ≤ 0.2 |
| IFDG | ≤ 0.2 |
| FSMG | ≤ 0.2 |
| APAT | ≤ 0.2 |
| HAQP | ≤ 0.2 |
| SWRA | ≤ 0.2 |
| QCMS | 0.379 |
| WPYS | ≤ 0.2 |
| QQPY | ≤ 0.2 |
| PKTL | ≤ 0.2 |
| QEPF | ≤ 0.2 |
| AMTS | ≤ 0.2 |
| PPQF | ≤ 0.2 |
| PLRK | ≤ 0.2 |
| DPGL | ≤ 0.2 |

| Variant | one-hybrid fitness for binding NBS DNA |
| --- | --- |
| YYAQ | ≤ 0.2 |
| CQRE | ≤ 0.2 |
| TYVI | ≤ 0.2 |
| FVLV | ≤ 0.2 |
| RRQW | ≤ 0.2 |
| GAVT | ≤ 0.2 |
| PLTI | ≤ 0.2 |
| RTEC | ≤ 0.2 |
| TYTV | ≤ 0.2 |
| HVHA | ≤ 0.2 |
| HEAT | ≤ 0.2 |
| SVCI | ≤ 0.2 |
| VDNG | ≤ 0.2 |
| KSMT | ≤ 0.2 |
| LPQG | ≤ 0.2 |
| SPVI | ≤ 0.2 |
| TLWM | ≤ 0.2 |
| APPC | ≤ 0.2 |
| GQTC | ≤ 0.2 |
| ANDE | ≤ 0.2 |
| MCNR | ≤ 0.2 |
| ILET | ≤ 0.2 |
| HHVR | ≤ 0.2 |
| NSLG | ≤ 0.2 |

| Variant | one-hybrid fitness for binding NBS DNA |
| --- | --- |
| NVEF | ≤ 0.2 |
| PMKW | ≤ 0.2 |
| ISYC | ≤ 0.2 |
| MKSH | ≤ 0.2 |
| KLKA | ≤ 0.2 |
| NSRF | ≤ 0.2 |
| HRLP | ≤ 0.2 |
| VTYC | ≤ 0.2 |
| YENN | ≤ 0.2 |
| ENYS | ≤ 0.2 |
| DRNA | ≤ 0.2 |
| FPTA | ≤ 0.2 |
| TGFS | ≤ 0.2 |
| IPNT | ≤ 0.2 |
| DYKV | ≤ 0.2 |
| YIHV | ≤ 0.2 |
| SGPM | ≤ 0.2 |
| QISM | ≤ 0.2 |
| TDER | ≤ 0.2 |
| PSCC | ≤ 0.2 |
| RGST | ≤ 0.2 |
| LGHG | ≤ 0.2 |
| TEVF | ≤ 0.2 |
| FSPN | ≤ 0.2 |

| Variant | one-hybrid fitness for binding NBS DNA |
| --- | --- |
| VELR | ≤ 0.2 |
| HLRN | ≤ 0.2 |
| SVYC | ≤ 0.2 |
| ARDT | ≤ 0.2 |
| MQSW | ≤ 0.2 |
| HCPM | ≤ 0.2 |
| PKWG | ≤ 0.2 |
| QSFA | ≤ 0.2 |
| YDCR | ≤ 0.2 |
| SNKT | ≤ 0.2 |
| VARV | ≤ 0.2 |
| KIDV | ≤ 0.2 |
| HHFG | ≤ 0.2 |
| GVSI | ≤ 0.2 |
| QSWS | 0.228 |
| PRAG | ≤ 0.2 |
| SRVV | ≤ 0.2 |
| YGLS | ≤ 0.2 |
| FHEG | ≤ 0.2 |
| SWAT | ≤ 0.2 |
| WHCL | ≤ 0.2 |
| MIGR | ≤ 0.2 |
| KGNI | ≤ 0.2 |
| RKCI | ≤ 0.2 |

| Variant | one-hybrid fitness for binding NBS DNA |
| --- | --- |
| EVSH | ≤ 0.2 |
| VHPN | ≤ 0.2 |
| PVGE | ≤ 0.2 |
| EAAI | ≤ 0.2 |
| RKMN | ≤ 0.2 |
| VADR | ≤ 0.2 |
| WSIE | ≤ 0.2 |
| FNTV | ≤ 0.2 |
| LFDL | ≤ 0.2 |
| ETYI | ≤ 0.2 |
| RHHW | ≤ 0.2 |
| CSLI | ≤ 0.2 |
| VLEC | ≤ 0.2 |
| RHKP | ≤ 0.2 |
| LFRI | ≤ 0.2 |
| VRRP | ≤ 0.2 |
| MRST | ≤ 0.2 |
| GRAR | ≤ 0.2 |
| PWMG | ≤ 0.2 |
| CLKF | ≤ 0.2 |
| DKVH | ≤ 0.2 |
| YASM | ≤ 0.2 |
| AEMG | ≤ 0.2 |
| VKKM | ≤ 0.2 |

| Variant | one-hybrid fitness for binding NBS DNA |
| --- | --- |
| SQIL | ≤ 0.2 |
| QHLV | ≤ 0.2 |
| PYHK | ≤ 0.2 |
| RNFS | ≤ 0.2 |
| QAVH | ≤ 0.2 |
| SNLA | ≤ 0.2 |
| ICWT | ≤ 0.2 |
| TAPV | ≤ 0.2 |
| EPPA | ≤ 0.2 |
| QQVD | ≤ 0.2 |
| EPQN | ≤ 0.2 |
| VLRS | ≤ 0.2 |
| APRH | ≤ 0.2 |
| PTAN | ≤ 0.2 |
| TWPY | ≤ 0.2 |
| LHEA | ≤ 0.2 |
| SEKD | ≤ 0.2 |
| AYPM | ≤ 0.2 |
| GDTQ | ≤ 0.2 |
| RLFV | ≤ 0.2 |
| RFWT | ≤ 0.2 |
| HCEI | ≤ 0.2 |
| GEHA | ≤ 0.2 |
| CELR | ≤ 0.2 |

| Variant | one-hybrid fitness for binding NBS DNA |
| --- | --- |
| WNAT | ≤ 0.2 |
| TIEK | ≤ 0.2 |
| GWNR | ≤ 0.2 |
| RVNW | ≤ 0.2 |
| MRNI | ≤ 0.2 |
| CMMG | ≤ 0.2 |
| DHID | ≤ 0.2 |
| VPRG | ≤ 0.2 |
| YFDG | ≤ 0.2 |
| YVCD | ≤ 0.2 |
| QHIT | 0.349 |
| SRHA | ≤ 0.2 |
| SYCT | ≤ 0.2 |
| IFKN | ≤ 0.2 |
| RCGF | ≤ 0.2 |
| RYGE | ≤ 0.2 |
| RIYN | ≤ 0.2 |
| QWAL | ≤ 0.2 |
| NSPT | ≤ 0.2 |
| PVIV | ≤ 0.2 |
| HQWC | ≤ 0.2 |
| QVPR | ≤ 0.2 |
| RCNV | ≤ 0.2 |
| TPIW | ≤ 0.2 |

| Variant | one-hybrid fitness for binding NBS DNA |
| --- | --- |
| KWAK | ≤ 0.2 |
| HSHS | ≤ 0.2 |
| GRER | ≤ 0.2 |
| CYLG | ≤ 0.2 |
| MRTV | ≤ 0.2 |
| CLTT | ≤ 0.2 |
| MLAL | ≤ 0.2 |
| NAQC | ≤ 0.2 |
| RHIK | ≤ 0.2 |
| LVQP | ≤ 0.2 |
| QHGK | ≤ 0.2 |
| DDVW | ≤ 0.2 |
| EMPT | ≤ 0.2 |
| QHVC | ≤ 0.2 |
| RFYR | ≤ 0.2 |
| KVKW | ≤ 0.2 |
| QYLC | ≤ 0.2 |
| YGNT | ≤ 0.2 |
| TCKM | ≤ 0.2 |
| QAQF | ≤ 0.2 |
| HPTM | ≤ 0.2 |
| TAER | ≤ 0.2 |
| MLTW | ≤ 0.2 |
| GCHS | ≤ 0.2 |

| Variant | one-hybrid fitness for binding NBS DNA |
| --- | --- |
| RYGP | ≤ 0.2 |
| PLWL | ≤ 0.2 |
| YPTC | ≤ 0.2 |
| QPTS | ≤ 0.2 |
| NDLY | ≤ 0.2 |
| RGFM | ≤ 0.2 |
| LRLC | ≤ 0.2 |
| KVVA | ≤ 0.2 |
| CDPR | ≤ 0.2 |
| GKSC | ≤ 0.2 |
| DYSF | ≤ 0.2 |
| ENNT | ≤ 0.2 |
| QIGM | ≤ 0.2 |
| MSRY | ≤ 0.2 |
| QVHA | ≤ 0.2 |
| NTWT | ≤ 0.2 |
| TCLE | ≤ 0.2 |
| HIHS | ≤ 0.2 |
| GTTK | ≤ 0.2 |
| RDQG | ≤ 0.2 |
| ARDC | ≤ 0.2 |
| MSIV | ≤ 0.2 |
| QCLQ | ≤ 0.2 |
| LLSY | ≤ 0.2 |

| Variant | one-hybrid fitness for binding NBS DNA |
| --- | --- |
| SVMF | ≤ 0.2 |
| PDDS | ≤ 0.2 |
| ASHT | ≤ 0.2 |
| RYGH | ≤ 0.2 |
| QKAV | ≤ 0.2 |
| YILA | ≤ 0.2 |
| LRTQ | ≤ 0.2 |
| EPRD | ≤ 0.2 |
| PGVV | ≤ 0.2 |
| RGRW | ≤ 0.2 |
| MAVK | ≤ 0.2 |
| GYWC | ≤ 0.2 |
| TFST | ≤ 0.2 |
| TPNH | ≤ 0.2 |
| NRAC | ≤ 0.2 |
| RAQL | ≤ 0.2 |
| GGCT | ≤ 0.2 |
| CNIG | ≤ 0.2 |
| AAIN | ≤ 0.2 |
| TSVP | ≤ 0.2 |
| FVGM | ≤ 0.2 |
| AIPC | ≤ 0.2 |
| DVLD | ≤ 0.2 |
| FNHG | ≤ 0.2 |

| Variant | one-hybrid fitness for binding NBS DNA |
| --- | --- |
| TPAV | ≤ 0.2 |
| PTLL | ≤ 0.2 |
| RPFC | ≤ 0.2 |
| HAAD | ≤ 0.2 |
| HCES | ≤ 0.2 |
| PYMF | ≤ 0.2 |
| TTEC | ≤ 0.2 |
| GVSC | ≤ 0.2 |
| IING | ≤ 0.2 |
| GHNW | ≤ 0.2 |
| TKAN | ≤ 0.2 |
| RDKQ | ≤ 0.2 |
| HFHV | ≤ 0.2 |
| RCPG | ≤ 0.2 |
| ECES | ≤ 0.2 |
| SRRH | ≤ 0.2 |
| AKEG | ≤ 0.2 |
| WYKT | ≤ 0.2 |

Reference: a collection of fitness landscapes (doi:10.1016/j.celrep.2020.107928)
